# Experimental data published in PubChem BioAssay AID1508623 (National Center for Advancing Translational Sciences (NCATS), 2021).
# The whole screen tested about 48,000 compounds, of which about 450 (0.94%) were called active. Roughly 19% stayed inconclusive and do not appear here. The call rests on the fitted dose curve; in most records, active means well fitted inhibition curve with a large enough effect; inconclusive means small, poorly fitted or top-dose-only effect; inactive means no such curve, though single readings can be large or run the other way. This is one part of the list.
# Assay: Primary qHTS for Identification of Small Molecule Inhibitors of Huntingtin Promoter Activity; further: nearly all actives have a fitted effect of over 50% in size
# Settings: HEK293 HTT promoter firefly luciferase reporter (activity 0% = vehicle and -100% = no light), 24 h; series mostly up to 57.5 µM; activity change, negative = inhibition: at the top concentration
# How it was run: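 HEK293 Fluc reporter, 2,500 cells/well, 24 h pre-culture; cpds up to 57.5 uM final, 24 h 37 degrees C; Dual-Glo, 10 min RT; normalized vehicle = 0%, zero RLU = -100%.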
# Potency means the concentration at half of the fitted maximal effect.
Compound,"activity change, negative = inhibition",Potency
Cc1cccn2c(=O)c(/C=C(\C#N)c3nc4ccccc4s3)c(Oc3ccc(Br)cc3)nc12,inactive: 5.28%,
Cc1cc(C)n(-c2nnc(Nc3ccc(C(C)C)cc3)c3ccccc23)n1,inactive: -30.7%,
NCCNC(=O)c1ccc(Cl)cn1,inactive: 6.79%,
COc1ccc(CNCc2ccc3c(c2)n(C)c(=O)n3C)cc1,inactive: -14.3%,
COc1cccc(C(=O)NC(=O)Nc2ccc(-n3nc(C(F)(F)F)cc3C(F)(F)F)cc2)c1,inactive: 0%,
CC(=O)c1ccc(NC(=O)C2=CC(c3cccs3)=NS(=O)(=O)N2C)cc1,inactive: -20.5%,
COc1cc(Nc2nc(SCc3cccc(Cl)c3)nc3ccccc23)cc(OC)c1,inactive: -19.3%,
Fc1ccc(Nc2c3c(nc4nncn24)CCC3)cc1,inactive: -16.7%,
CCN(c1ccccc1)S(=O)(=O)c1ccc(NC(=O)c2cc(=O)c3ccc(C)c(C)c3o2)cc1,inactive: -18.7%,
Cc1ccc2c(CC(=O)Nc3c(C(=O)c4ccc(F)cc4)oc4ccccc34)coc2c1,inactive: -15.1%,
Nc1nc(Cl)nc2c1ncn2[C@H]1C[C@H](O)[C@@H](CO)O1,inactive: -9.61%,
Cn1cc(C(=O)[C@@H]2CCc3nc[nH]c3C2)c2ccccc21,inactive: -2.45%,
CCC(=O)OCc1cnc(C)c2oc(=O)c(C(=O)Nc3ccc(CC)cc3)cc12,inactive: 13.5%,
CC(NC(=O)C1CCN(C(=O)N2CCOc3ccc(Cl)cc32)CC1)c1ccccc1 (stereo unspecified),inactive: -16.5%,
COc1ccc(-c2nc3c(c(SCc4cc(C)ccc4C)n2)Cc2c(CO)cnc(C)c2O3)cc1,inactive: -8.64%,
COc1ccc(N2CCN(C(=O)c3nn(C)c4c3CS(=O)(=O)c3ccccc3-4)CC2)cc1,inactive: -9.01%,
COc1ccc(CCNC(=O)CS(=O)Cc2nc(-c3ccc(C)cc3)oc2C)cc1OC (stereo unspecified),inactive: -25.9%,
O=C(CCSCc1ccc(Cl)cc1)N1CCN(c2ccccc2F)CC1,inactive: -21.4%,
COc1ccccc1Nc1nn2c(=O)c3ccc(C(=O)Nc4ccc(F)cc4)cc3nc2s1,inactive: -1.66%,
NC(=O)c1cc(S(=O)(=O)NCc2ccc(Br)cc2)cs1,inactive: -23.6%,
CCOc1ccc2oc(=O)cc(CN3CCN(C(=O)c4cccc(F)c4)CC3)c2c1,inactive: -17.2%,
CCCN(CCC)CCNC(=O)Cn1ncc2c([nH]c3ccc(C)cc32)c1=O,inactive: 7%,
Cc1cccc(C(=O)O)c1O,inactive: 10.6%,
CCOC(=O)c1ccc(NC(=O)CCc2c(C)n(CC)c3cc(-c4ccccc4OC)nn3c2=O)cc1,inactive: -1.97%,

Compound,"activity change, negative = inhibition",Potency
CCc1cccc(-n2c(=O)c3cccnc3n2CC(=O)NCc2ccccc2Cl)c1,inactive: -26.4%,
CCOC(=O)c1[nH]c(C)c(CCC(=O)NCc2ccc(C)cc2)c1C,inactive: -8.13%,
CCOCCCNC(=O)c1cc2c(=O)n3ccccc3nc2s1,inactive: 53.7%,
O=C(/C=C\c1ccc2c(c1)OCO2)NC1CC(=O)N(c2ccc(F)cc2)C1 (stereo unspecified),inactive: -20.7%,
Cc1ccc(C)c(N2CCN(C(=O)c3cc4cc5ccc(C)cc5nc4s3)CC2)c1,inactive: 8.9%,
CC(C)(C)c1ccc(C(=O)Nc2cc(-c3ccccc3)nn2-c2ccccc2)cc1,inactive: -9.91%,
Cc1ccc(CNc2nc3c(S(=O)(=O)c4ccc(C)c(C)c4)nnn3c3ccc(Cl)cc23)cc1,inactive: 10.9%,
O=C(CN1CCN(c2ccc(Cl)cc2)CC1)Nc1ccc(Cl)c(C(F)(F)F)c1,inactive: -17.3%,
Cc1ccc(CSc2oc(-c3ccco3)nc2S(=O)(=O)c2ccc(Br)cc2)cc1,inactive: -15%,
CC1CCN(C(=O)CSc2nc3c([nH]c4ccccc43)c(=O)n2-c2ccccc2)CC1,inactive: 0.773%,
COc1ccccc1NC(=O)CSc1nnc(-c2nonc2NC(C)=O)n1-c1ccccc1,inactive: -27.9%,
CCOc1ccc(-n2c(=O)c3c4c(sc3n(Cc3cc(=O)n5cc(Cl)ccc5n3)c2=O)CCC4)cc1,inactive: 19.3%,
CCc1ccc(NC(=O)Cn2c(=O)n(Cc3nc(C)no3)c(=O)c3cc4c(cc32)OCO4)cc1,inactive: -2.02%,
CCc1ccccc1NC(=O)Cn1nnc(C(=O)Nc2ccc(OC)c(OC)c2)c1N,inactive: -2.88%,
CCCCN(Cc1ccco1)C(=O)c1cc2c(s1)-c1c(C)cccc1OC2,inactive: -24.6%,
CCOC(=O)c1ccccc1NC(=O)c1nn(-c2ccc(C)cc2)c(=O)n(C)c1=O,inactive: 0.431%,
Cc1c(NC(=O)C(F)(F)F)ccc2nc3c(=O)n(C)c(=O)n(C)c3nc12,inactive: 0%,
CCOCCCNC(=O)Cn1cc2c(n1)-c1c(oc(C(=O)N3CCCC3)c1C)CC2,inactive: -15.2%,
COc1c(Cl)cc(Cl)cc1/C=C(\C#N)c1nc(-c2ccc(Cl)cc2)cs1,inactive: -36.8%,
COc1ccc(-n2ncc(C(=O)NCCCN3CCCCC3)c2C2CCN(C(=O)OC(C)(C)C)CC2)cc1,inactive: -8.17%,
COc1ccc(-c2cc(-c3ccc4c(c3)NC(=O)CO4)nc3c2COc2ccc(C)cc2-3)cc1,inactive: -10.9%,
CCc1ccccc1NC(=O)c1cnn(-c2ccc(F)cc2)c1C1CCNCC1,inactive: -7.79%,
Cc1cc(C)c(S(=O)(=O)N2CCC(N3CCN(Cc4ccc(F)cc4)C(=O)C3=O)CC2)c(C)c1,inactive: 2.79%,
CC(C)c1ccc(NC(=O)c2cnn3c(C(F)F)cc(-c4ccccc4)nc23)cc1,inactive: -1.57%,

Compound,"activity change, negative = inhibition",Potency
Cc1ccccc1NC(=O)c1ccc(F)c(S(=O)(=O)N2CCc3ccccc3C2)c1,inactive: -41.2%,
COC(=O)Cn1ccc2cc(S(=O)(=O)N3CCCCC3)ccc21,inactive: -13.8%,
Cc1ccc(C(C)C)c(OCCCn2c(=O)oc3ccc(C)cc32)c1,inactive: -24.7%,
Cc1ccc(C)c(N2CCN(C(=O)C3CCC(CNS(=O)(=O)c4ccc(Br)s4)CC3)CC2)c1 (stereo unspecified),inactive: -27.1%,
COc1cccc(NC(=O)Cn2c(=O)n(CCCCC(=O)NCc3ccc4c(c3)OCO4)c(=O)c3ccccc32)c1,inactive: -13.6%,
N#Cc1ccc(NC(=O)c2ccc3c(c2)nnn3C2CCCC2)cc1,inactive: -51.3%,
CCCS(=O)(=O)N1CC(=O)N(c2cc(C)cc(C)c2)C(C)(C(=O)NC2CCCCCC2)C1 (stereo unspecified),inactive: -0.913%,
CCOc1ccccc1C(=O)Nc1cc(-c2nc3cccnc3s2)ccc1C,inactive: 14.1%,
CCC(Sc1ncnc2sc3c(c12)CCCC3)C(=O)OCC(C)C (stereo unspecified),inactive: -10.5%,
CCOC(=O)N1CCC(NC(=O)c2cnn(-c3ccc(C)cc3)c2C2CCN(C(=O)OC(C)(C)C)CC2)CC1,inactive: 3.24%,
Oc1cccc(Nc2cc(-c3ccccc3)ncn2)c1,inactive: 49.3%,
Cc1ccc(NC(=O)CCc2c(C)nc3ncnn3c2C)cc1Cl,inactive: -3.24%,
Cc1ccccc1NC(=O)Cn1nnc(C(=O)NCc2cccs2)c1N,inactive: -31.8%,
CCc1ccc(NS(=O)(=O)c2ccc(NC(=O)N3CCCC3)cc2)cc1,inactive: -27.6%,
Cc1ccc(CSc2nc3cc(C(=O)NC4CCCC4)ccc3c(=O)n2Cc2ccccc2)cc1,inactive: 2.98%,
CC(CNC(=O)c1csc2c1CCCCC2)c1ccccc1 (stereo unspecified),inactive: 20.5%,
CCc1ccc(NC(=O)Cn2nnc(C(=O)Nc3ccc(F)cc3)c2N)cc1,inactive: 1.36%,
O=C(Nc1cccc(O)c1)c1cc(-c2ccccc2F)no1,inactive: 24.2%,
O=C(NCc1cccc(Cl)c1)c1ccc2c(Cl)c3c(nc2c1)CCCC3,inactive: -12.4%,
COc1cc(NC(=O)c2cc(S(=O)(=O)N3CCC(C)CC3)cn2C)cc(OC)c1OC,inactive: -7.76%,
CCOC(=O)C1CCCN(C(=O)Cn2ncc3c4ccccc4n(C)c3c2=O)C1 (stereo unspecified),inactive: 8.17%,
O=C(CSc1ncc(CO)n1Cc1ccc(F)cc1)NCc1ccco1,inactive: 0.616%,
COc1cc(O)ccc1-c1nc2cc(C)ccn2c1Nc1ccccc1C,inactive: -30.9%,
Cc1cccc2c(=O)cc(CSc3ccccc3NC(=O)c3cccc(Br)c3)[nH]c12,inactive: -8.54%,

Compound,"activity change, negative = inhibition",Potency
O=C(Nc1cccc(F)c1)C1CCN(S(=O)(=O)c2ccc3[nH]c4c(c3c2)CCCCC4)CC1,,active: 25.1 µM
COc1ccc(NC(=O)CSc2nc3nc(C)cc(C)n3n2)cc1OC,inactive: -18.4%,
COC(=O)C1=C(C)NC(C)=C(C(=O)OCC(C)=O)C1c1ccccc1[N+](=O)[O-] (stereo unspecified),inactive: 9.1%,
Fc1ccc(C(c2ccc(F)cc2)N2CCN(C/C=C/c3ccccc3)CC2)cc1,inactive: -19.1%,
CCOc1ccccc1NC(=O)NCc1noc2ccc(C)cc12,inactive: -22.6%,
Cc1ccc(N2CC(C(=O)NCc3nnnn3-c3ccc(C)c(C)c3)CC2=O)cc1C (stereo unspecified),inactive: 8.38%,
COc1cccc2c1cc1c(=O)n(CC(=O)NCc3ccc(N(C)C)cc3)nc(C)n12,inactive: -5.86%,
COc1cc(C(=O)NCC(c2ccc3c(c2)OCO3)N2CCN(C)CC2)cc(OC)c1OC (stereo unspecified),inactive: -4.29%,
CC(C)c1ccc2oc(-c3cc(NC(=O)c4cccnc4)ccc3Cl)nc2c1,inactive: -21.7% [at 11.5 µM],
COc1cccc(NC(=O)c2sc3nc(C)c(C(=O)Nc4ccc(C)cc4C)c(-c4ccc(C)o4)c3c2N)c1,inactive: 9.07%,
CCC1CCCCN1CCCNC(=O)c1c(C)oc2ncn(CC(C)C)c(=O)c12 (stereo unspecified),inactive: -13.1%,
O=c1n(Cc2ccc(Cl)cc2)nc2n1-c1ccccc1OC2,inactive: 2.74%,
O=C(CSc1nc2ccccc2nc1Cc1ccc(Cl)cc1)N1CCN(c2ccccc2F)CC1,inactive: -3.82%,
Cc1ccccc1OCC(=O)Nc1ccc2nc(SCCOc3ccccc3)sc2c1,inactive: 3.94%,
Cc1ccc(C)c(N2CCN(C(=O)CCCCCn3c(=O)[nH]c4ccccc4c3=O)CC2)c1,inactive: -23%,
Cc1ccc(-c2nnc(Nc3ccc(S(N)(=O)=O)cc3)c3ccccc23)cc1S(=O)(=O)N1CCOCC1,inactive: -5.53%,
CC(NC(=O)c1cccc(NC(=O)c2nsc3ccccc23)c1)c1ccccc1 (stereo unspecified),inactive: 0.0404%,
COc1ccc2c(c1)Cc1sc(NC(=O)c3cccc(F)c3)nc1-2,inactive: 15.2%,
COc1ccc(C(=O)Nc2ccc3oc(-c4ccc(OC)cc4)nc3c2)cc1,inactive: 34.3%,
CCCC(=O)Nc1cc(-c2nc3cccnc3s2)ccc1C,inactive: 53.2%,
CCc1cccc(NC(c2nnc(-c3ccccc3)o2)c2ccc(F)cc2Cl)c1 (stereo unspecified),inactive: -35.6%,
CC(=O)Nc1ccc(S(=O)(=O)NC2(C(F)(F)F)C(=O)Nc3c2c(=O)[nH]c(=O)n3-c2ccc(C)c(C)c2)cc1 (stereo unspecified),inactive: -19.2% [at 11.5 µM],
CCOc1ccc(NS(=O)(=O)c2ccc3[nH]cc(C(=O)NC4CCCC4)c(=O)c3c2)cc1,inactive: -23.7%,
CCOc1ccc(C(=O)c2cn(Cc3ccc(OC)cc3)c3cc(OC)c(OC)cc3c2=O)cc1,inactive: -22.7%,
